# Data: PubChem BioAssay (NCI)
# Several values for one entry are separate records, joined by “and”; a condition that tells them apart may be missing. Equal entries are not always repeated.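 In this assay, cells in 96-well plates receive the compound at five concentrations for 48 hours. Endpoints are linearly interpolated between the surrounding concentrations. At the GI50, growth is halved. TGI is the concentration that stops growth completely.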
# Tested on: NCI-H322M lung
# Assay: NCI tumour cell line growth inhibition, 48 h
Structure (SMILES),GI50,TGI
C=CCN(CC=C)Cc1c[nH]c2ccccc12,23.6 µM,79.3 µM
O=c1[nH]c2ccccc2c2oc3ccccc3c12,–,> 100 µM
CC1=N/C(=C\c2ccc(C)cc2)C(=O)O1,–,> 100 µM
Cn1cc(-c2ccc3c(c2)ncn3-c2cc(NS(=O)(=O)C3CC3)cc(-c3ccc(F)cc3F)c2)cn1,23.8 µM,> 100 µM
c1cc(OCCCCCOc2cccc(-c3nc4ccccc4[nH]3)c2)cc(-c2nc3ccccc3[nH]2)c1,5.14 µM,> 100 µM
COC1=CC(=O)C(O)=C(CC2(C)C(C)CCC3(C)C2CCCC3(C)C)C1=O (stereo not drawn),–,19.7 µM
O=[N+]([O-])c1ccc(N/N=C\c2cc(Br)ccc2O)nc1,1.09 µM,6.05 µM
COc1ccc(-c2c(Nc3ccccn3)nc3c(C4=CCCCC4)c(-c4ccccc4)[nH]n3c2=O)cc1,2.9 µM,> 100 µM
O=C1[C@H](Cc2ccc(O)cc2)N2C(=O)CCN(C(=O)NCc3ccccc3)[C@H]2CN1Cc1cccc2ccccc12,4.01 µM,46.3 µM
CN(C)c1ccc(/C=c2/sc3nc(=O)c(-c4ccccc4NC(=O)C(F)(F)F)nn3c2=O)cc1,–,> 100 µM
O=c1c2sc3ccccc3sc=2c(=O)c2c(Cl)c(Cl)c(Cl)c(Cl)c12,–,> 100 µM
COc1cc2c(Oc3ccc(-c4cnc(Nc5ccc(F)cc5)n(C)c4=O)cc3F)ccnc2cc1OCCCN1CCOCC1,1.53 µM,4.36 µM
Nc1ccccc1C(=O)/C=C/c1ccccc1O,–,> 100 µM
CCCCC(C(=O)C(=O)Nc1ccccc1CC)C(=O)C(C)C (stereo not drawn),–,> 100 µM
c1ccc(C(NC2=NCCO2)C2CC2)cc1 (stereo not drawn),–,> 100 µM
COc1cc(/C=C/C(=O)c2nc3cc(F)ccc3nc2C)cc(OC)c1OC,> 100 µM,> 100 µM
COC(=O)[C@@H]1Cc2ccc(OC)c(c2)OCCC(=O)N1,–,> 100 µM
N#CC1=C(N)Oc2c(ccc3ccccc23)C1c1cc2ccccc2n2nnnc12 (stereo not drawn),2.15 µM,> 100 µM
COc1ccc(OC/C(N)=N/NC(=O)c2ccncc2)cc1,–,> 100 µM
CN(C)CCCC1(c2ccc(F)cc2)OCc2cc(-c3csc4ccccc34)ccc21 (stereo not drawn),1.38 µM,2.71 µM
N#CC1=C(S)N(C2OC(CO)C(O)C(O)C2O)C(c2ccccc2)=CC1c1ccco1 (stereo not drawn),–,> 100 µM
N/C(=N\N=C\c1nc2ccccc2o1)c1cnccn1,–,> 100 µM
COC(=O)/C(=N\N)C(C(=O)C(=O)Nc1cc(Cl)ccc1Cl)c1nc2ccc([N+](=O)[O-])cc2[nH]c1=O (stereo not drawn),–,> 100 µM
O=C1CSC(c2cc3cc(Br)ccc3nc2Cl)N1c1ccc(Cl)cc1 (stereo not drawn),–,> 100 µM

Structure (SMILES),GI50,TGI
CN(C)[C@@H]1C(=O)C(C(=O)NCc2nc3[nH]cnc(=S)c3[nH]2)=C(O)[C@@]2(O)C(=O)C3=C(O)c4c(O)cccc4[C@@](C)(O)[C@H]3C[C@@H]12,> 100 µM,> 100 µM
Cc1cc2nnn(C3CCCCO3)c2cc1C (stereo not drawn),–,> 100 µM
CCOC(=O)c1c(C)n(-c2ccc(C)cc2)c(=O)c2ccccc2c(=O)c2c(=O)ccc(=O)c1=2,–,52.7 µM
C#CCCCCCC(=O)N[C@H]1C=C[C@@H]2/C=C(C)/C=C/[C@@H](C)[C@H]([C@H](C)[C@H](O)[C@@H](C)NC(C)=O)OC(=O)/C=C/C=C(C)\C=C\[C@]2(C)C1,0.178 µM,> 40 µM
CC[C@@H]1CC[C@@H]2[C@H](CC[C@]3(C)[C@@H](O[N+](=O)[O-])CC[C@@H]23)[C@H]1C(C)=O,–,> 100 µM
COc1cc2c(cc1OCCN1CCN(CCN3C(=O)c4cccc5cccc(c45)C3=O)CC1)N=C[C@@H]1CCCN1C2=O,23.2 µM,41.3 µM
O=C(c1c(F)c(F)c(F)c(F)c1F)n1c(=S)n(C(=O)c2c(F)c(F)c(F)c(F)c2F)c2ccccc21,–,> 100 µM
Cc1nc2ccccc2n1Cc1nnc(-c2ccccc2)o1,–,> 100 µM
CCCCCCCCCCCCCCCCOP(=O)([O-])OCC[N+](C)(C)C1CC(C)(C)N(O)C(C)(C)C1,–,> 100 µM
CN1CCN(C(=O)/C=C/c2ccc([N+](=O)[O-])o2)CC1,31.7 µM,> 100 µM
Cc1cnc2[nH]c(-c3cccc4ccccc34)cc(=O)c2c1,–,> 100 µM
O=c1c2cc(Br)ccc2nc(CNc2ccccc2)n1-c1ccccc1,–,> 79.7 µM
COc1cc(/C=C/c2cc(/C=C/c3ccc(O)c(OC)c3)n(C(=O)Nc3ccc(C)cc3)n2)ccc1O,0.544 µM,5.76 µM
Cc1cccc(Oc2ccc(Nc3ncnc4ccc(NC(=O)CN(C)C)cc34)cc2Cl)c1,1.29 µM,6.82 µM
CCN(CC)c1ccc(Cl)c2c1C(O)(C(C)C)C2(C)C (stereo not drawn),–,34 µM
O=[N+]([O-])c1ccc2c3c1[C@@H]1O[C@@H]1c1cccc(c1-3)[C@@H]1O[C@H]21,–,26.3 µM
CC1=C(C(=O)NNC(=O)C[N+](C)(C)C)CC(C(=O)NNC(=O)C[N+](C)(C)C)=C(C)N1,–,> 100 µM
O=S(=O)(O)C(c1ccccc1)C(O)c1ccccc1 (stereo not drawn),–,> 100 µM
O[C@@H]1[C@H](OC2c3ccccc3-c3ccccc32)[C@H](OCc2ccccc2)[C@@H]2OC[C@H]1O2,–,> 100 µM
COc1ccc2cc3n(c(=O)c2c1)CCc1c-3cc(OC)c(OC)c1OC,–,> 100 µM
COC(=O)c1sc(=S)sc1SCc1cccc(CSc2sc(=S)sc2C(=O)OC)c1,–,> 100 µM
O=C(O)CSc1cc(NS(=O)(=O)c2ccc(Br)cc2)c2ccccc2c1O,16.4 µM,31.1 µM
CC(C)(C)OC(=O)/N=C/c1c(O)c2ccccc2oc1=O,–,> 100 µM
CCCCCNC(=O)CCCCCCCCCCCNC(=O)CCCCCCCCCCN1C=CC(=CC=C2C=CC(=O)C=C2)C=C1,–,> 100 µM

Structure (SMILES),GI50,TGI
N=C(N)SCc1ccc(Cl)c2ccccc12 (tested in a mixture with another compound),–,25.8 µM and 28.8 µM
CCOC(=O)C1(C)CCC(C(=O)OC)C1=O (stereo not drawn),–,> 100 µM
CO/C(N)=C(\C#N)N=Cc1ccsc1,–,> 100 µM
Oc1c(Br)cc(Cl)cc1C(c1cc(Cl)cc(Br)c1O)C(Cl)(Cl)Cl,3.05 µM,9.82 µM
O=S(=O)(Nc1ccccc1)c1ccc(C2CC3(Cl)C(Cl)=C(Cl)C2(Cl)C3(Cl)Cl)cc1 (stereo not drawn),4.11 µM,15.3 µM
Nc1cc(C(F)(F)F)c(-c2nc(N3CCOCC3)nc(N3CCOCC3)n2)cn1,0.27 µM,> 33.2 µM
Cc1ccc2c(=O)cc(-c3cc(C)sc3C)[nH]c2n1,–,> 100 µM
NC1=C(c2nc(-c3ccccc3)cs2)C(c2ccco2)c2c(c3ccccc3oc2=O)O1 (stereo not drawn),–,> 100 µM
N#CCC(=O)N/N=C\C(O)C(O)C(O)C(O)CO (stereo not drawn),–,> 100 µM
C=CCN1C(=O)NC(=O)/C(=C/c2c3ccccc3cc3ccccc23)C1=O,–,55.3 µM
Cc1ccccc1NC(=O)CC(=O)NNCC(=O)Nc1nnc(-c2ccccc2)s1,–,> 100 µM
CN1S(=O)(=O)N(C)P12(N=P(CP(=NP13(N(C)S(=O)(=O)N1C)N(C)S(=O)(=O)N3C)(c1ccccc1)c1ccccc1)(c1ccccc1)c1ccccc1)N(C)S(=O)(=O)N2C,–,> 100 µM
CCc1nc(N)nc(N)c1-c1ccc(N2CCOCC2)c(N=[N+]=[N-])c1,–,> 100 µM
CCCCCC(=O)OC[n+]1cccc(-c2c(COC(=O)NC(C)C)c(COC(=O)NC(C)C)c3n2CCC3)c1,–,> 100 µM
CCCCCCC1OC23OC1CCC2C(O)CCC3O (stereo not drawn),–,> 100 µM
COc1cc(Nc2nc3cc(C)ccc3nc2-c2ccccc2)cc(OC)c1OC,–,> 100 µM
O=[N+]([O-])c1ccc(/C=C(/c2ccc([N+](=O)[O-])o2)S(=O)(=O)c2ccccc2)cc1,–,> 100 µM
CN(C)CCNC(=O)c1cccc2c1nc(-c1cccnc1)c1ccccc12,–,20.6 µM
COc1cc(CCN)c(OC)c(OC)c1,–,> 100 µM
O=C(Nc1ccc(Cl)cc1Cl)C1C(=O)OC2(CCCCC2)OC1=O,–,> 100 µM
COC(=O)c1c(C)cccc1C1CN=NC12Cc1cc(C)c(C)cc1C2=O (stereo not drawn),–,> 100 µM
COC(=O)C1(CCCCl)CCCN1C(=O)OC(C)(C)C (stereo not drawn),–,> 100 µM
CC(C)C(=O)Cc1ccc2ccccc2n1,–,> 100 µM
O=C(NO)c1ccc(CNc2cccc3nc(C4CC4)n(-c4ccccc4)c(=O)c23)cc1,2.84 µM,15.1 µM

Structure (SMILES),GI50,TGI
Cc1ccc2c(c1C)CC1(Cc3ccc(C)c(C)c3C1=O)C2=O (stereo not drawn),–,88.9 µM
O=C1/C(=C/c2ccc(Br)s2)NC(=S)N1CN1CCCCC1,–,> 100 µM
COC(=O)N/N=C(\C)c1sc(-c2nc(C)c(/C(C)=N/NC(=O)OC)s2)nc1C,–,> 100 µM
COc1cc(Nc2cc(Cl)cc(Cl)c2)nc(N)n1,–,57.9 µM
CCC12C=C(C(=O)OC)N3c4ccccc4C4CCN(CCC1)C2C43 (stereo not drawn),–,> 100 µM
COC(=O)C1=C(OC)C(=P2(c3ccccc3)CC(c3ccccc3)=C2c2ccccc2)C(C(=O)OC)=C1C(=O)OC (stereo not drawn),–,> 100 µM
Cc1csc(=Nc2ccccc2)n1CCC(O)(P(=O)(O)O)P(=O)(O)O,–,> 100 µM
CCOC(OCC)(OCC)C(Br)CC (stereo not drawn),–,> 100 µM
COC(=O)C1=C(O)C(C(=O)OC)[C@@]2(O)[C@@H](C(=O)OC)[C@H](C)C[C@@H]1[C@@H]2C(=O)OC (stereo partly drawn),–,> 100 µM
C=CCN(c1cc(O)c2c(c(C)cn2S(=O)(=O)c2ccccc2)c1[N+](=O)[O-])S(C)(=O)=O,–,> 100 µM
O=C(O)c1ccccc1/C=C1\Cc2cc3c(cc2C1=O)CCC3,–,> 100 µM
COc1cc2c(cc1C)NC(=O)/C2=C\c1ccc(Oc2ccccc2)cc1,15.1 µM,40.3 µM
O=C1c2ccccc2-c2c1c1c(O)cccc1n2Cc1ccccc1,6.63 µM,25.3 µM
CNS(=O)(=O)NNS(=O)(=O)c1ccc(C)cc1,–,> 100 µM
COc1nc(N)nc2nc[nH]c12,> 800 µM and 532 µM,257 µM and > 800 µM and > 1000 µM
CN(C)c1ccc(/C=C2\CCc3ccccc3C2=O)cc1Br,–,> 100 µM
COC(=O)C1CC(=O)O[C@H]1c1ccc(OC)c(OC)c1 (stereo partly drawn),–,> 100 µM
O=C1C[C@@H]2OCC=C3C[N+]4([O-])CC[C@]56c7ccccc7N1[C@H]5[C@H]2[C@H]3C[C@@H]64 (stereo partly drawn),> 100 µM,> 100 µM
CNCc1cccc2c1OCCOCCOCCNS(=O)(=O)c1ccc(cc1)-c1cnc(N)c(n1)C(=O)N2,1.67 µM,7.17 µM
O=C(CCN1CCOCC1)Nc1ccc(Cn2nnc3c2C(=O)c2nnn(Cc4ccc(NC(=O)CCN5CCOCC5)cc4)c2C3=O)cc1,1.45 µM,> 100 µM
COc1ccccc1CNCCCN1C(=O)c2ccc3c4c(ccc(c24)C1=O)C(=O)N(CCCNCc1ccccc1OC)C3=O,0.228 µM,0.707 µM
O=C(/C=C/c1ccccc1)CCN1CCCCC1,–,> 100 µM
Cc1cccc(C)c1NC(=O)C(=O)CC(=O)c1sc(Nc2c(C)cccc2C)nc1C,–,> 100 µM
